Results taken from the supplement of paper PMC7125110.
± gives the standard error. Variants at the background level are over-represented here.

B1: glmS ribozyme (parent)
chain: AUAAAAGCGCCAGAACUACAGAAAUGUAGUUGACGAGGAGGAGGUUUAUCGAAUUUUCGGCGGAUGCCUCCAAA

Variants of: B1
Assay: self-cleavage kobs at 10000 uM GlcN6P; higher = faster cleavage; RNA array
Conditions: with glucosamine-6-phosphate
How it was run: (§1)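 kobs was derived by fitting per-tile medians to one- or two-exponential decays after normalising signals to baseline and to non-cleaving reference variants. Those signals came from barcoded ribozyme variants transcribed in situ by E. coli RNA polymerase on sequenced MiSeq chips, followed through a hybridised Cy3 probe at 37 °C and imaged over ~14 h. Glucosamine-6-phosphate (40 μM to 10 mM) in HEPES/KCl/Mg(OAc)2 buffer was flowed in. Weighted Michaelis–Menten fits across concentrations then gave kcat and KM.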

Variant	self-cleavage kobs at 10000 uM GlcN6P [s⁻¹]
C8G A33G G41U C58U A64C C68U	< 1e-05
C61G G62A U69C	< 1e-05
U46G C50G C67G	< 1e-05
A36C G60A	< 1e-05
C34A G38A A53U	< 1e-05
A6C G9U C10U G38U C67G	< 1e-05
G13U U30A C58U G59U	< 1e-05
C10U G29A C67U C70U	< 1e-05
C11U G63C	< 1e-05
U31G C50A G59A	< 1e-05
C34U U49A	< 1e-05
G13A A36G A39G	< 1e-05
A48U U55A U56C	4.04e-05 ± 1e-05
C16G U65A C71U	0.000346 ± 8.7e-05
U47A U65G G66U	0.00262 ± 0.00053
G35U U46C U47G	< 1e-05
A12C U49G C68A	< 1e-05
A15G A52G C67U C71G	4.89e-05 ± 1.3e-05
G7U G41A U57G	< 1e-05
C61G U69A	< 1e-05
A36C G37C	< 1e-05
A33C G43C C61A A64U C70U	< 1e-05

Variant	self-cleavage kobs at 10000 uM GlcN6P [s⁻¹]
G13C G29C G43C C67A	< 1e-05
A15G A33C A52U	< 1e-05
G7A A39G C68U C70A	< 1e-05
G40U A53C G62C	< 1e-05
G13U U57C	3.63e-05 ± 1.8e-05
A52U C58G U65G	< 1e-05
C67U C70U C71U	< 1e-05
G59C G60C	< 1e-05
A15C C16A A36C G41C G62U	< 1e-05
U46G G59U A64U	< 1e-05
G13A G29A G63U	< 1e-05
G9U G32A U55C	< 1e-05
G37C C61G C67U C71U	< 1e-05
A14U G38A G40U U47C G66U	< 1e-05
A39G U65G C70U	0.0203 ± 0.0059
G7C A48G	< 1e-05
U30C U46C G59U	< 1e-05
C8U G44U U46A C50G	< 1e-05
G29C G37A G43U	< 1e-05
G32U C50U	< 1e-05
G37A U65C C70U	< 1e-05
A14G C61A C70A	< 1e-05

Variant	self-cleavage kobs at 10000 uM GlcN6P [s⁻¹]
A12C G62U C71U	< 1e-05
G38C A52U G59A	< 1e-05
A36C G51C C68U	< 1e-05
C16A G29C G37C A42U	< 1e-05
A15U C34A G41A	< 1e-05
C34G U49G	< 1e-05
U45G U54A C58A G60U	< 1e-05
A15U A36G U54G	< 1e-05
A39C G51A	< 1e-05
A12U G37C U45A A48U C68U	< 1e-05
G9A C10G G43A C70G	< 1e-05
G38C C61G U69A	< 1e-05
C11U G13C G35C	< 1e-05
C8G A15C G40A G41U C50U C70G	< 1e-05
C8A G35C A53U	< 1e-05
G29C G40C G41A G51A	< 1e-05
G9A C58U C71U	< 1e-05
A36G A64C U65G	< 1e-05
C8U G9U G43A	< 1e-05
G13U G32C C34U G60A G66A	< 1e-05
C8G A14G G41A	< 1e-05
C8U U30C A39C U46C	< 1e-05

Variants of: B1
Assay: self-cleavage kobs at 2500 uM GlcN6P; higher = faster cleavage; RNA array
Conditions: with glucosamine-6-phosphate
How it was run: as §1

Variant	self-cleavage kobs at 2500 uM GlcN6P [s⁻¹]
A14G G29C A42U	< 1e-05
G38C A48U U57C C67U	< 1e-05
G41A U47G C70G	9.9e-05 ± 3.6e-05
A12G U47A G59U	< 1e-05
G51C U55C U56C	< 1e-05
C11U G38C C61U	< 1e-05
A12C G37C A39C	< 1e-05
G13C G29A G40U U56A C70A	< 1e-05
C11G A36U U49G	< 1e-05
G37C A48U U65C	< 1e-05
C34G G35C G66A	< 1e-05
U31G C58A C67G	6.38e-05 ± 2e-05
C11A U45G U46G A53C	< 1e-05
A12C A33G C34U C50A A64U C70G	0.00011 ± 4.2e-05
C34G G38A A42U G44C C67U	< 1e-05
C16G G32U U49A	< 1e-05
C34U U49A	< 1e-05
G43U U54A C58U G59C C61G G62C A64G U65A G66U	< 1e-05
C34A G35U G38A A48C C50A C68A	< 1e-05
U56G G66C C71U	0.000269 ± 5.5e-05
A48U U55A U56C	3.8e-05 ± 1.3e-05
C16G U65A C71U	0.000341 ± 8.1e-05

Variant	self-cleavage kobs at 2500 uM GlcN6P [s⁻¹]
G35C U56A C68U	< 1e-05
G29C U31G C71A	< 1e-05
G38U C50G	6.94e-05 ± 1.4e-05
C10U G40A G44C C70A	< 1e-05
G29C G44C C50U G66U	< 1e-05
A14U C34A G51C	< 1e-05
A14G G32A C34G A53U	< 1e-05
G62U U65G C67U	< 1e-05
C16U A36U G41A U46C G51C	< 1e-05
A15C G43U C68U U69A	< 1e-05
A12G A14U C34A G40C G63A	< 1e-05
A14U U47C G60A G62C	< 1e-05
A33C G43C C61A A64U C70U	< 1e-05
U31C A42C U47C C67U	< 1e-05
C16A A36G G41A	< 1e-05
G32U G44A G59U	< 1e-05
U47G A52G G59C	< 1e-05
A52U G60C C68U	< 1e-05
C16U G40U G63U	< 1e-05
A42C U45C A48U C61A	< 1e-05
G13U U57C	3.41e-05 ± 1.3e-05
C10U G60C G63U	< 1e-05

Variant	self-cleavage kobs at 2500 uM GlcN6P [s⁻¹]
C16G U49C A64G	< 1e-05
G38U G43A U45G	< 1e-05
A33U C34A G44U A52C	< 1e-05
U30A A39G G41C G44A G60C U65G	< 1e-05
A48U G51C C58A	< 1e-05
G32A G44A C71A	< 1e-05
U46G G59U A64U	< 1e-05
G41C U45A U56G C67G C70G	0.00118 ± 0.00023
U30A A39G U69G	5.54e-05 ± 2.2e-05
C11U G29A G51U	< 1e-05
U31A A33U C71G	< 1e-05
G37A G43U C61A G62C	< 1e-05
A12C G40U G44U	< 1e-05
A15G A48C G59A C68U C70G	< 1e-05
A15U A39G G51A	< 1e-05
C16A A36U G37C C58U	< 1e-05
A14U G37U G41A G51A C70A	< 1e-05
G35C A42U U55A C58G	< 1e-05
G44U C68A C70A	< 1e-05
G43U C61A C70U	< 1e-05
C50U G60U A64C C70A	< 1e-05
G13A G51C C67G	< 1e-05

Variant	self-cleavage kobs at 2500 uM GlcN6P [s⁻¹]
C16U G51U C61A	< 1e-05
G37A G44U G60C A64U G66U C71G	< 1e-05
G35A U54A U56C G60C	< 1e-05
A42U A53U G59A	< 1e-05
A14G G37A G38A A52C A53C C70A C71U	< 1e-05
G13A G38A U55C G60A	< 1e-05
G32U C50U	< 1e-05
A14G A42G A52U	9.16e-05 ± 3.3e-05
U30A A42U G62U	< 1e-05
G35C G44U G63U G66U C67G	< 1e-05
G41A U45A C71U	9.76e-05 ± 2.1e-05
G44U A53C G63C	< 1e-05
A15G G35C A39C U46A	< 1e-05
C11G A12U U30C G40C C50G	< 1e-05
A52C U56G A64G	< 1e-05
G29U U30A G35C A36C G41C U45C	< 1e-05
A12G C19A A52C	< 1e-05
U49A U65G C70U	< 1e-05
A15U A33U G59U	< 1e-05
A12C A52U C67U	0.000185 ± 4.2e-05
C34G U49G	< 1e-05
A39C G51A	< 1e-05

Variant	self-cleavage kobs at 2500 uM GlcN6P [s⁻¹]
G43U G44A C50U C61G	< 1e-05
A48C G60U G66C	< 1e-05
C50G U56G G59U	8.66e-05 ± 3.9e-05
U49C G60U C70U	< 1e-05
A48G G60C G63U	< 1e-05
A12G A52U C70A	< 1e-05
A36C G59U G60U C70G	< 1e-05
A39U G66A C68G	4.5e-05 ± 2e-05
G37A G38C U56G C70G	6.06e-05 ± 1.5e-05
A14C C61G G63C	< 1e-05
C34A A48C G51C	< 1e-05
C11A A14C A42C U55C A64G	< 1e-05
A36U U45A U46A U69A	< 1e-05
G40U U49G G59U	< 1e-05
U31A A36G G63A A64U C71U	< 1e-05
A12U A15C G37A G44A A52U	< 1e-05
C11U G29C U31A	< 1e-05
U31A A33G A36C U46C	< 1e-05
G35U G38C G44U G60A	< 1e-05
U46A C67G C68U	0.000113 ± 5.1e-05
A39U A52C C71A	< 1e-05
